From the supplement of paper PMC11417369
± gives the standard deviation of the averaged measurements. The list shows a part of the results.

Test system: PfAP2-G AP2 domain (GST-tagged)
Test: gcPBM binding intensity (ln(normalized median fluorescence intensity)); higher = stronger DNA binding
In short: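 Binding intensity is defined as the maximum Masliner-normalised natural-log median intensity across replicate spots for either probe orientation. It was measured on an Agilent 4 × 180k array of primer-extended double-stranded 36-bp intergenic genomic probes and negative controls, to which GST-tagged P. falciparum DNA-binding domains made in E. coli were applied for 1 h in 1× PBS with 1% milk, 0.2 mg/ml BSA, 0.5% salmon testes DNA and 0.03% Triton X-100. Detection was by Alexa488 anti-GST antibody and scanning at 488 nm.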

| Sequence | gcPBM binding intensity (ln) |
| --- | --- |
| TTCATATAATTCATCTGTACATATTGATAGTATGCA [XGTACX_site6386] | 10.9 ± 0.54 |
| TGTTTTATTTATTAAGCACACGCGATTTAAAAAATA [CACACA_site981] | 10 ± 0.19 |
| AAAAAAACACACACATATATATATATATATATATAT [GTGCAC_negctrl_site498] | 10.3 ± 0.9 |
| TTTGTTCTTTTTGAAGTGCACTGAAATATAACAAAA | 10.5 ± 0.55 |
| AAGAAAAAGAATAACCTTATTTCTATATACTAATTT [TGCATGCA_negctrl_site477] | 9.62 ± 0.18 |
| ATCAAAATTGTCATTACACACCTTTATTTTTATAAT [CACACA_site5071] | 10.3 ± 0.18 |
| ATAGTAATAGAATGATTGCACTTAAATTTTCCCTCT | 9.87 ± 0.057 |
| GTATACATATTTATAATAATAAATGTCTTATATTTT [CACACA_negctrl_site688] | 9.755 ± 0.021 |
| ATAATTAATGATGTATGTACGGAATTTATATATTTG [XGTACX_site5685] | 11 ± 0.54 |
| TATCTTATATATAAGTGTACGCAGATTCTTACGATA [XGTACX_site6058] | 11.5 ± 1 |
| TAATATATTAATATATGTACGTATTTTTATTAATAT [XGTACX_site5346] | 11.6 ± 0.93 |
| TTAAATAATTCTTTTAGTACACACGAATAAGCAGAT [XGTACX_site623] | 11.2 ± 0.78 |
| CATACATACAAACACACACACATATATATACATACA [CACACA_site852] | 10.2 ± 0.34 |
| ATATATATATATATATGTACATATGTCAACTGTCTA [XGTACX_site8636] | 11.2 ± 0.44 |
| CACAGACACGGACACACACACACACCCAGACACATA [CACACA_site4357] | 11.3 ± 0.86 |
| CATATACACGAACACACACACACACGCACAAAAAAA [CACACA_site6376] | 10.6 ± 0.51 |
| TATGTATTAATGAGAACATGCAAAATAATAAACAAT [TGCATGCA_site362] | 10.2 ± 0.13 |
| ATATATCAAATAGACAAACACACAAAGGAAGAGTGA [CACACA_site3922] | 10.01 ± 0.035 |
| CATATAAAAATGTGCACACACACACCGATATATATT [CACACA_site4940] | 10.5 ± 0.3 |

| Sequence | gcPBM binding intensity (ln) |
| --- | --- |
| CCACAGGATTGGTTCAAACACACATATTATATGACT [CACACA_site661] | 10.21 ± 0.014 |
| TATTTTTTTTTTTTTTGTACACATAATTGTAATCGT [XGTACX_site8415] | 11.3 ± 0.84 |
| TCACTTTTTATTAAATGTACATGCTTTCATTTTCAT [XGTACX_site8139] | 10.9 ± 0.52 |
| GAATAAATAATTAACACACACAATCTTTTTTTTTTT [CACACA_site3140] | 9.61 ± 0.11 |
| TATATATATATATATGTACACACATCAATCATATTA [CACACA_site8594] | 11.3 ± 0.76 |
| AAAAAAAAAATAAAATAAAATATATTATATATATTA [GTGCAC_negctrl_site431] | 9.12 ± 0.25 |
| TATATATATATATATACACACTTGTGCAGAATATTA [CACACA_site5257] | 10.1 ± 0.29 |
| TGTACGAGTCGTAGAGTGCAGTCTGGAGAAAAGTAC [GTGCAC_site9683] | 11.2 ± 0.76 |
| AATAATGAAAAAATGAATAAAATTACTATATAATTC [XGTACX_negctrl_site457] | 9.73 ± 0.17 |
| GATATGATGTGTTTGGTAGTTTTTGATGTTGGCATG [GTGCAC_negctrl_site506] | 10.09 ± 0.042 |
| AAATAAATAAATAGACGTACAAAAATATTATACATT [XGTACX_site6776] | 11.2 ± 0.8 |
| GTAAATAATAAACACCGTACATGGTATAATTCAATG [XGTACX_site3655] | 10.7 ± 0.33 |
| TATAAATGTGTATGCGCATGTAAAAATATAATTTAT [TGCATGCA_site750] | 10.21 ± 0.078 |
| TATAAATTTATATATGCATGTCAGAAAAAAAAGTAA [TGCATGCA_site414] | 10.055 ± 0.007 |
| CAACAAAATAAACACACACACACAAACACAAAAAAA [CACACA_site5806] | 10.3 ± 0.27 |
| GAACTCATTACAAAGTGTACAAATTAAATAAATGGT [XGTACX_site3995] | 11.1 ± 0.43 |
| TTTTTCTTATTTGGATTGCACTACATATATATATAT | 10.6 ± 0.47 |
| AGGTGCTTAATATATACACACATACAGATATATATA [CACACA_site5552] | 10.02 ± 0.085 |
| ATAAGGTTACAACAAACACACAAAGGAATATACACA [CACACA_site7840] | 10.2 ± 0.21 |

| Sequence | gcPBM binding intensity (ln) |
| --- | --- |
| AAAATTTTTTGAAATAGTACTTTTTTATATATATAT [XGTACX_site2634] | 11.2 ± 0.62 |
| GGATATTAATAAATATGTACATATGTAGATTTATTA [XGTACX_site554] | 11.1 ± 0.67 |
| ATATATAAATATATATGTACATAAATATATATCTTT [XGTACX_site6910] | 11.2 ± 0.67 |
| AAGAAAAAAAAAAAAACACACATATATATATATATA [CACACA_site2027] | 9.93 ± 0.57 |
| TGTATACCTTAATATACACACATACCTATATTTATA [CACACA_site6746] | 9.905 ± 0.035 |
| TATAAATAGAGGAAGCGTACATATATATATATATAT [XGTACX_site4993] | 11.3 ± 1 |
| ACAAAAAATTAATGAGAAATGGAATAATAAGTTATA [GTGCAC_negctrl_site321] | 9.875 ± 0.021 |
| TAAAGTTTTTCCTATCTATATTTATATTATAAATGA [XGTACX_negctrl_site20] | 9.81 ± 0.071 |
| TATGATTTTAATGAAACACACAATTTTATGTTAATA [CACACA_site311] | 9.82 ± 0.11 |
| TATAAAGGTATACAAAGTACAAAATACATATATACT [XGTACX_site6431] | 10.7 ± 0.49 |
| GTGAGTGAAATATGCAAACACACACCCGAAAAATGT [CACACA_site3197] | 10.14 ± 0.049 |
| TGAAGTATAATTTATCTAATATGTTATATTTTATTT [TGCATGCA_negctrl_site56] | 9.38 ± 0.18 |
| TGTGTATAAGTCACTTGTACTAGTAGTAAAAAAAAA [XGTACX_site4341] | 11.2 ± 0.88 |
| TAATATATGTTATATACACACATATAAATATAAATA [CACACA_site6339] | 9.94 ± 0.18 |
| TCTTATAAACTCTGCACACATAATATATTAAATGAG [CACACA_site1936] | 10.1 ± 0.22 |
| AATATAGGTATATCCACACACATATTTATATTTATA [CACACA_site6867] | 9.93 ± 0.028 |
| TTTAATATTATTATTTTACACACTTTTTTCCTTTTA [CACACA_site8780] | 9.9 ± 0.11 |
| CAAATAATATTATGAAGTACTTCAAATTTTGAAAGA [XGTACX_site2530] | 11.3 ± 0.72 |
| AGATAATAGGTTACTTGTACATATAAATAAATATAT [XGTACX_site158] | 11.1 ± 0.67 |
